In publication PMC12136788:
The other results are listed elsewhere or left out.

T1: UNK ZnF1-3 (human, UniProt Q9C0B0 31-174)
T1 sequence: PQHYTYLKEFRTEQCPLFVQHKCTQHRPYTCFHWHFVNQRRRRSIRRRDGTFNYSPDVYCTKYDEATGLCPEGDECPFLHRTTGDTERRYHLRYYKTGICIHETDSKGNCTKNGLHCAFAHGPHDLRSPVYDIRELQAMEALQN

B1: chr6:74354288:74354289:-_ENSG00000119899_ENST00000355773|hu_hu|motif|central (ssRNA)
RNA: GGGAGUUCUACAGUCCGACGAUCACUCAGAUUCACACGUAAUGCAUACACAAUGAAGAAACCAAAAAAGGCCAAAAUUGCGGAGUUGUAACGAGCAGAGCAGCACACUGGAGCGGCUUCGGCCCGUGGGGCGCCCGGUAGAAGCAACAGAGGAUUGAGCAUCA
B2: chr22:19452774:19452775:-_ENSG00000070010_ENST00000399523|hu_hu|hu_hu_hu_mus_False|8_58 (ssRNA)
RNA: GGGAGUUCUACAGUCCGACGAUCCUUCUCAUUGUAGUUGAUAGCAAUCACAUCUCCAGUCGUCAGACAGGCGAAGUUCCUAAGUGCAUUUUCUAAUACCGCUUUAGGGUUGGUAAUAUCCAGGAAGUCAGGGCUCUGAGGCUGCAACAGAGGAUUGAGCAUCA
B3: chr1:33857880:33857881:-_ENSMUSG00000042197_ENSMUST00000044455|mus_mus|FALSE|FALSE (ssRNA)
RNA: GGGAGUUCUACAGUCCGACGAUCUCUUGAAAACACCCAGUCACACUUUAUAUCUCAAGGAUUUCACAACGACGUCUAGACUAAUGGCAUCCCUCUUUAUUUCAAGAGAGAUCAGAUUGUCAGGCAUGUUUGAAAUUCUUGCUCCAACAGAGGAUUGAGCAUCA
B4: 77602660_77622899_379_3pUTR_ENSMUSG00000032350_ENSMUST00000034905|mouse|control|control (ssRNA)
RNA: GGGAGUUCUACAGUCCGACGAUCAACAUGUACUCCACCUCGUCACCCCACUUGAGCACGUCCUUGUGCCGGUCCUUGACUGCGUGGUAGAUGUGCAGGAACUGGAGGAUGCCGUGCCUCCGCACGUGGUCGGCGUGGCGCUGGCAACAGAGGAUUGAGCAUCA
B5: chr7:116176368:116176369:+_ENSMUSG00000031028_ENSMUST00000033341|mus_mus|motif|central (ssRNA)
RNA: GGGAGUUCUACAGUCCGACGAUCCAGACAGACACACACACACAGACACAGAGCACCUUGGAGCCAGAAGGACAGAAAAAGCGGGACUUGGAGAGGAGCUGGGGAAGCUAACAUCACCACUCUGCAGAAGAACUGGUUUGGAGCCAACAGAGGAUUGAGCAUCA
B6: chr14:66974463:66974464:+_ENSMUSG00000022044_ENSMUST00000074523|mus_hu|mus_mus_mus_hu_False|38_38 (ssRNA)
RNA: GGGAGUUCUACAGUCCGACGAUCUUGUAGGACGACUUAUUCAGGGGAUCGGCCAGGAAGCAGGAGCAGAACAAGGACACCAGCGGGAGCUCCUUCAUCUUCUCCUUGUAGGCAGCAAGGGUCAUGUUUCUGGGAUCUGGUGGCCAACAGAGGAUUGAGCAUCA
B7: chr18:42481571:42481572:+_ENSMUSG00000024491_ENSMUST00000091920|mus_hu|FALSE|FALSE (ssRNA)
RNA: GGGAGUUCUACAGUCCGACGAUCAAGAUAUUGGAUUAGGGCUGCUUCUGGGUCACCCUUAAAAGCAACCUGGAUAUUAACAAUAGUUCCAAAUUUGCUGAAGUGUUCAUUGAGCUUGGUAAUGUUGUUCAAUUCCUGAGGGAUCAACAGAGGAUUGAGCAUCA
B8: chr12:77883852:77883853:+_ENSMUSG00000090258_ENSMUST00000041262|mus_hu|FALSE|FALSE (ssRNA)
RNA: GGGAGUUCUACAGUCCGACGAUCGAUCUGUAGAAGGAUCCUUAGAAUAAGAGAGUCAUUUGUCGGGGGUCAUCAGGGAGAAUACUGAUAGUAUCUUCGGCUUUGCCGCAUAACAGACACAGCAUGGUAUACUCGAUCAUAGGUCAACAGAGGAUUGAGCAUCA
B9: chr1:163116108:163116109:-_ENSG00000143248_ENST00000313961|hu_hu|FALSE|FALSE (ssRNA)
RNA: GGGAGUUCUACAGUCCGACGAUCGUACCUUAAAAGUGUCUCACCUAGAAGGCCUCUACCUGUAAUCACAUUAAUUUUUCUAAAGACAAUUUGGUGUUUUGAAGAUAAAUGUCAUUAGUCUAUGAUAAUAGCAUCAUAGGACAACAACAGAGGAUUGAGCAUCA
B10: chr4:144460044:144460045:+_ENSG00000153147_ENST00000283131|hu_mus|hu_hu_hu_mus_False|8_78 (ssRNA)
RNA: GGGAGUUCUACAGUCCGACGAUCACGGUCCAUAGCCUGAAGAUCAACUUGCGGAUUCCAAUCAGAAUCAUAUAAAAUGACUACAUCAGCAGUUGCAAGAUUGAUGCCCAGACCACCAGCACGUGUGCUUAACAUGAAUACAAACAACAGAGGAUUGAGCAUCA
B11: chr12:32445735:32445736:+_ENSMUSG00000035933_ENSMUST00000036862|mus_hu|motif|central (ssRNA)
RNA: GGGAGUUCUACAGUCCGACGAUCUCGGGCUCUUGCAAUAAAAAGUAGAUCAUUUUCUAUCACUUCUAUUCCAGAAAGAUCGGUUCCUUGAGAAAGAUAAUCAAGUUCAUUGAGACUCUGAGCAGCUUUUGUUAUCUCUCUACUCAACAGAGGAUUGAGCAUCA
B12: chr18:56819859:56819860:+_ENSG00000166562_ENST00000588875|hu_mus|hu_hu_hu_mus_True|18_18 (ssRNA)
RNA: GGGAGUUCUACAGUCCGACGAUCAACCUUGAUUACUCUGUGAACUAUCGGAAUGUCUCUUCCUUCAACCUUAAAAACAACUAUUUCACCAGCUCUGAUGGGGUCCUCCCGGAAAUUUGUGAGGAACAGCAGAUCUCCUCUGUGCAACAGAGGAUUGAGCAUCA
B13: 180263169_180263726_1282_CDS_ENSMUSG00000039630_ENSMUST00000037748|mouse|control|control (ssRNA)
RNA: GGGAGUUCUACAGUCCGACGAUCAUAAUCUUCUGUCUCACAGUUGCAUGUUUUUAUUCCUUUCAGAGAAUACCCGUAAGAAAAUUCUUCUUCACCAAGCAACAUUCCACUUGUGGUUAGUGACCAGCCAAUCCGAACUUCAUGCAACAGAGGAUUGAGCAUCA
B14: chr4:142697793:142697794:-_ENSMUSG00000057637_ENSMUST00000105778|mus_mus|FALSE|FALSE (ssRNA)
RNA: GGGAGUUCUACAGUCCGACGAUCUAGGACAGACUGUGUCAGUGGGGUUGGCGACAGCCAUGAGUCCAUGCUUUCGAGGACUAACUGCAGGGUGCGUAGAAGGAGAAAAUUCCAGUUGAAGAAAUAAAAGAGGGGCACGCCAGACAACAGAGGAUUGAGCAUCA
B15: chr5:40767622:40767623:-_ENSG00000132356_ENST00000397128|hu_mus|hu_hu_hu_mus_False|38_58 (ssRNA)
RNA: GGGAGUUCUACAGUCCGACGAUCAUCUUUUAUUGCGGCCCUCUUCAUGGGAUCCACCUGCAGCAUAUGUUUCAAAAGGCUAAUCACUGAAGGGUUUAAAUAUUGAGGGGUAUAAAAGAUCCCAUCACAUAUCUUCUUAAAAAGCAACAGAGGAUUGAGCAUCA
B16: chr4:47850210:47850211:-_ENSG00000170448_ENST00000381538|hu_hu|motif|central (ssRNA)
RNA: GGGAGUUCUACAGUCCGACGAUCUACAUUAAAAGAUCAAAACUUUUUUUAAUUGACAUCAUGGGUGAUGUACCAGGCAAACACGGCAACCACAACUCCACACACUGAAAUGAGAUAAUAUUUAUGUUUUUGCCAUAGUGAUAGCAACAGAGGAUUGAGCAUCA
B17: chr2:151326667:151326668:-_ENSG00000115963_ENST00000263895|hu_hu|motif|central (ssRNA)
RNA: GGGAGUUCUACAGUCCGACGAUCUUUAUUUGUCUUAUUUACACAUGCCAAGGUGGCAACGUGAAAAAUGUCUCUGACGCGGUUUUCCGACUGUAAAGCUGAGCAUUCGAUAUAAGUAGCUGCUCCAAUCUGUUUGGCCAUAUUCAACAGAGGAUUGAGCAUCA
B18: chr3:57646030:57646031:-_ENSMUSG00000027805_ENSMUST00000066882|mus_hu|FALSE|FALSE (ssRNA)
RNA: GGGAGUUCUACAGUCCGACGAUCUAAAUCUGUACAUUAUCCACAAGGCCCAAACAAUAGAAGCAAAUACUAGAAUGUCCCUAAAGUAGUGCCAUUCGAAAGAAACCCUUAAUAGGUCAGUUAAAAUCCAUCUCACAAUAGCAACAACAGAGGAUUGAGCAUCA
B19: chr17:85393198:85393199:+_ENSMUSG00000061130_ENSMUST00000080217|mus_mus|FALSE|FALSE (ssRNA)
RNA: GGGAGUUCUACAGUCCGACGAUCAUGUGUUGAACAGUAAUUUGCCACUCGGGAUCCAGCAUGACCGUCAUAAACUGCAAAAAACGACCAGUUGUCCAAGCCGUGAGGAAUACCCACAACAGCUGUGUGUGCAUCUUCCAUUUCCAACAGAGGAUUGAGCAUCA
B20: chr11:60965468:60965469:-_ENSMUSG00000042506_ENSMUST00000041683|mus_mus|FALSE|FALSE (ssRNA)
RNA: GGGAGUUCUACAGUCCGACGAUCCUAACCACAGUACAAUCAUUGGAUUUUUUUUCCCUCACGAUUUUUUAUUUCAAAGCUAUAAUAAAUGAAACAAACCACUUGUCAAAAAGAACAAUGAUUUUACACAAGGAAAAGCAUACACAACAGAGGAUUGAGCAUCA
B21: chr10:118639881:118639882:-_ENSMUSG00000020114_ENSMUST00000020315|mus_hu|motif|central (ssRNA)
RNA: GGGAGUUCUACAGUCCGACGAUCAACACUAGUGGUUUUACAACCUCUGGAUUAUGGAAAUACACAUUUCUGAAAUAAAUGCGGCAAAAACAACAAUGGAAGAAAGCCAAACAAACAGUCUCCAUGAAGGAAAAAAAAGUGGAACAACAGAGGAUUGAGCAUCA
B22: chr22:38884116:38884117:-_ENSG00000100201_ENST00000396821|hu_mus|FALSE|FALSE (ssRNA)
RNA: GGGAGUUCUACAGUCCGACGAUCAUAAUCCUCUGAGCUGUUUGGAUAAUCGUAGUUGAUGACAAACUUGACAUCUUCCACAUCUAGCCCACGGGAGGCUACAUCCGUGGCAAUGAGGAUAGGAGCCUUUCCAGAUCGGAACUCCAACAGAGGAUUGAGCAUCA

Target: T1, UNK ZnF1-3
Assay: nsRBNS (natural sequence RNA bind-n-seq); RBNS binding buffer (assumed for nsRBNS): 25 mM Tris pH 7.5, 150 mM KCl, 3 mM MgCl2, 0.01% Triton X-100, 500 ug/ml BSA, 20 U/ml SUPERase-In, 4 C; UNK is unkempt and MSI1 is Musashi-1; names of the RNAs are library labels; protein concentration not given here; high values mean tight binding

| Binder | binding signal [enrichment R] |
| --- | --- |
| B1 | 1.28 |
| B2 | 0.863 |
| B3 | 0.421 |
| B4 | 0.682 |
| B5 | 2.74 |
| B6 | 2.39 |
| B7 | 0.838 |
| B8 | 0.553 |
| B9 | 1.17 |
| B10 | 1.22 |
| B11 | 0.91 |
| B12 | 0.691 |
| B13 | 0.996 |
| B14 | 1.75 |
| B15 | 1.36 |
| B16 | 1.72 |
| B17 | 0.723 |
| B18 | 1.15 |
| B19 | 1.24 |
| B20 | 0.726 |
| B21 | 1.81 |
| B22 | 0.664 |
